Reference: PMC6919601, “Identification of Plasmodium dipeptidyl aminopeptidase allosteric inhibitors by high throughput screening” (PLoS ONE, 2019)
Several values for one entry are separate records, joined by “and”; a condition that tells them apart may be missing. Equal entries are not always repeated. The whole screen tested about 110,000 compounds, of which about 230 (0.21%) showed an effect of 50% or more. The list shows a part of the results.

Each compound was assayed against DPAP1 (Plasmodium falciparum, UniProt Q8IIJ9) (assay: primary screen, percent inhibition; read by cleavage of a fluorogenic dipeptide substrate; higher = more effect of the substance).
Set-up: species or system P. falciparum D10 trophozoite lysates; single well
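Further: 30 min substrate incubation versus DMSO and 10 µM JCP410 controls.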

Sequence of DPAP1 (Q8IIJ9 whole entry, looked up): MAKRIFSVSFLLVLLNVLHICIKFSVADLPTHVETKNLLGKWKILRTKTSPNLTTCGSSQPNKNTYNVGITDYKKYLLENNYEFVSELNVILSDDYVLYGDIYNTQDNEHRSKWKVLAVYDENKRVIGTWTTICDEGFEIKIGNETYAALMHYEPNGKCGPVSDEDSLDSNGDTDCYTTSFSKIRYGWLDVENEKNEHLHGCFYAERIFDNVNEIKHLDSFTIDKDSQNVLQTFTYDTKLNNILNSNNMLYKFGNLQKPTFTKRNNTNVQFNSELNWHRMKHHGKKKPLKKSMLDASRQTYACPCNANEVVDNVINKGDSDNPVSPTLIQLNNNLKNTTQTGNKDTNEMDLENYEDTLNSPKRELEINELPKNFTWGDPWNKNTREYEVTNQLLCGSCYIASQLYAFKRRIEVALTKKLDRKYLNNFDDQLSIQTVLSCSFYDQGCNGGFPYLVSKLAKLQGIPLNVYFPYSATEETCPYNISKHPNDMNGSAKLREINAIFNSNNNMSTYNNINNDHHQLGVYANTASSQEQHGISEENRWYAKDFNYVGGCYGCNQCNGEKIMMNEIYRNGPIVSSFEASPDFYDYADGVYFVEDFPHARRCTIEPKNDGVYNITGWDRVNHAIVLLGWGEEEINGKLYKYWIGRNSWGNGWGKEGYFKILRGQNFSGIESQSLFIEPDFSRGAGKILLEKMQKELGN

SMILES	% Inhibition @ 10 uM
Cc1ccc2nc(N(CCN(C)C)C(=O)COc3ccccc3)sc2c1	-5.01%
COc1ccc(CCNC(=O)/C(C#N)=C/c2ccc(C)o2)cc1OC	2.57%
CCC(Cc1ccccc1)NC(=O)Cn1cc2c(n1)CCC(C)C2 (stereo not drawn)	3.4%
COc1ccc(-c2nonc2NC(=O)c2ccc(F)cc2)cc1OC	2.29%
O=C(O)c1cccc(NC2=C(Cl)C(=O)N(c3cc(Cl)ccc3Cl)C2=O)c1	-3.46%
CC1=C(C#N)C(c2ccc(Cl)cc2Cl)C2=C(O)CC(C)(C)CC2=N1 (stereo not drawn)	18%
COc1c(Cl)cc(-c2noc(C)c2C(=O)NC(C)C)cc1Cl	1.27%
CC(NS(=O)(=O)c1ccc(OCC(=O)Nc2cccc3ccccc23)cc1)c1ccccc1 (stereo not drawn)	1.7%
N#CCNC(=O)C(Cc1c(F)cccc1F)NC(=O)c1cc(-c2ccccc2)c(-c2ccccc2)s1 (stereo not drawn)	-1.82%
N#CCCN1C(=O)c2ccccc2C1=O	-4.64%
CC(C)CCNS(=O)(=O)c1ccc2nc(O)oc2c1	7.53%
CC(C(=O)N1CCCCCC1)n1sc2ccccc2c1=O (stereo not drawn)	-4.59%
CCCCc1c(O)nc2ccc(OC)cc2c1O	16.7%
COc1ccc(S(=O)(=O)N2CCN(C/C=C/c3ccccc3)CC2)c2ccccc12	-4.33%
O=C(c1cnn(-c2ccccc2)c1-n1cccc1)N1CCN(Cc2ccc3c(c2)OCO3)CC1	0.137%
C=CCn1c(SCC(=O)NC(N)=O)nc2sc3c(c2c1=O)CCCC3	2.38%
CCOC(=O)C1=C(C)N=c2s/c(=C\c3ccc(Cl)cc3)c(=O)n2C1c1ccccc1F (stereo not drawn)	1.84%
COc1ccccc1N1CCN(S(=O)(=O)c2ccc(C)cc2)CC1	-4.35%
COc1ccc(C2C3=C(CC(C)(C)CC3=O)OC3=C2C(=O)CC(C)(C)C3)cc1Br	-3.92%
Cc1ccc(/N=c2/sc(C)c(C)n2C)cc1	-4.16%
CC(C)(C)c1ccc(C(=O)Nc2ccccc2Cl)cc1	-0.546%
CCc1sc(NC(=O)CCCC(=O)O)nc1-c1ccccc1	-0.99%

SMILES	% Inhibition @ 10 uM
Cc1nc2cc(NC(=O)NC3CCCCC3)ccc2o1	-5.23%
COc1ccc(NC(=O)CC(C)(C)C)cc1Cl	7.45%
CC1CN(C(=O)C(C(=O)N2CC(C)c3ccccc32)C23CC4CC(CC(C4)C2)C3)c2ccccc21 (stereo not drawn)	1.88%
O=C(c1cccc(COc2ccc(Cl)cc2Cl)c1)N1CCOCC1	0.413%
Cc1ccc(C2CCN(C(=S)NCc3ccccc3)C2)cc1 (stereo not drawn)	0.718%
O=C(NCc1cccnc1)[C@H](Cc1ccccc1)N1Cc2ccccc2C1=O	4.54%
CC(C)C[C@H](NC(=O)c1ccc(OC(F)F)cc1)C(=O)NCC#N	3.19%
COc1ccc(N2CCN(C(=O)C(C)Oc3ccccc3)CC2)cc1 (stereo not drawn)	0.205%
CCc1ccc(CNCc2cccnc2)cc1	1.37%
COCc1cc(O)nc(SCC(=O)Nc2ccc(Br)cc2)n1	-6.69%
CCOc1ccc(/C=N/c2sc3c(c2C#N)CCCC3)cc1	-3.48%
Cc1cc(C)cc(OCC(O)CN2CCCCC2)c1 (stereo not drawn)	1.29%
Cc1ccc2[nH]c(C3=C(N)N(C(C)c4ccccc4)CC3=O)nc2c1 (stereo not drawn)	-1.22%
Cc1ccc(S(=O)(=O)NC(C)C(=O)Nc2ccc(F)cc2)cc1 (stereo not drawn)	-5.49%
CCOC(=O)c1nnn(-c2nc(N)nc(N(C(C)C)C(C)C)n2)c1-c1ccccc1	-2.28%
O=C(O)CCCCCNC(=O)c1ccncc1	-1.52%
CC(C)Cn1c(=O)c2sccc2n2c(CCCC(=O)O)nnc12	-3.85%
COC(=O)C1=CN(CCc2ccc(OC)cc2)C=C(C(=O)OC)C1c1cccs1	3.47%
Cn1nc(C(=O)N2CCN(Cc3ccccc3)CC2)c2c1-c1ccccc1S(=O)(=O)C2	-1.38%
CCN(CC)C(=O)Cn1cc(S(=O)(=O)Cc2ccccc2)c2ccccc21	3.51%
CSc1nc(N)nc(SCC(=O)Nc2ccc(C)cc2)c1C#N	-2.8%
O=C1N=C(c2ccc(O)cc2)NC2Oc3ccc4ccccc4c3C=C12 (stereo not drawn)	1.68%

SMILES	% Inhibition @ 10 uM
COc1ccc(C(=S)N2CCOCC2)cc1	1.29%
COc1ccc(C(=O)Nc2ccc(S(=O)(=O)NC(C)(C)C)cc2)c(OC)c1	-4.21%
Cc1cc(C)n2nc(NC(=O)COc3ccc(Cl)cc3C)nc2n1	0.401%
Cc1cc(OCC(=O)Nc2ccc(C(C)C)cc2)ccc1Br	-1.25%
O=C(NC1CCCC1)C1CCCN(c2cnccn2)C1 (stereo not drawn)	-4.67%
CC(=O)Nc1sc2c(c1C(=O)Nc1cccc3ccccc13)CCCCC2	-1.2%
O=C(O)c1cccc(S(=O)(=O)N2CCCC2)c1	-3.04%
COCCNC(=O)CS(=O)(=O)Cc1nc(-c2ccc(OC)cc2)oc1C	-7.53%
Sc1ccc(N2CCCCCC2)nn1	23.5%
Cc1oc2cc3oc(=O)c(CCC(=O)NCCc4ccccc4)c(C)c3cc2c1C	-0.808%
CC1(C)CC(=O)C(Sc2ccccc2C(=O)O)=C(O)C1	0.83%
CN(c1ccccc1C(=O)NC1CCCCC1)S(=O)(=O)c1ccccc1	-2.74%
COc1ccc(-c2csc(Nc3ccc(C)c(Cl)c3)n2)cc1F	1.41%
COc1ccccc1N1CCN(C(=O)c2ccc(F)cc2)CC1	3.01%
Oc1nc(-c2ccccc2)cc(-c2ccc(Br)cc2)n1	4.63% and 2.46%
CN1NC2(CCCC2)NC1=S	6.82%
COc1ccc(CNC(=O)c2ccc(CS(=O)Cc3ccc(C)cc3)o2)cc1 (stereo not drawn)	-3.91%
N#C/C(=C\c1ccc2cccnc2c1)c1nc2ccccc2[nH]1	-0.703%
Cc1ccc(NC(=O)/C(=C/c2ccco2)NC(=O)c2ccc(C)c(C)c2)cc1	-1.07%
CSc1ccc(C2C(C#N)=C(N)OC3=C2C(=O)CC(c2ccccc2)C3)cc1 (stereo not drawn)	-3.72%
Clc1ccc(-n2ncnc2-c2cccnc2)cc1	-2.48%
Cc1nc(SCC(=O)Nc2ccccc2C(N)=O)c(C#N)c(C)c1C	0.121%
